The results in this text go back to the supplement of paper PMC8007513.

Counter-ions that a name gives are not always drawn. ± gives the standard error. In all, about 1,300 compounds went through this assay and about 75 (6%) showed an effect of 50% or more. This is one part of the list.

This assay deals with Trichoderma virens ATCC 9645. The experiment in a line: growth yield (OD600) relative to untreated control; higher = less growth inhibition. As to conditions: compound concentration: 100 uM. The method, boiled down: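 Plates were read for OD600 at 40 h and 72 h after Trichoderma virens ATCC 9645 spores (15,000 spores ml^−1 in potato dextrose broth) were grown at 30 °C with library compounds at 100 μM final, with or without a biocide at 200 ng ml^−1. Growth is stated relative to the control with neither agent, as the mean of duplicate screens.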

Turning to `C[C@H]1O[C@H](O[C@H]2[C@H](O)[C@@H](O)[C@@H](O[C@H]3[C@H](O)[C@@H](O)C(O)O[C@@H]3CO)O[C@@H]2CO)[C@H](O)[C@@H](O)[C@@H]1N[C@H]1C=C(CO)[C@@H](O)[C@H](O)[C@H]1O` (some centres undefined) [Acarbose], the growth yield is, setting by setting: (40 h) 104.7 ± 0.79%; (72 h) 109 ± 2%.

On to `CN1CCC(=C2c3ccccc3C=Cc3ccccc32)CC1` [Cyproheptadine hydrochloride], for which the growth yield runs as follows: (40 h) 94 ± 1.6%; (72 h) 100 ± 1.1%.

Regarding `CC(C)(C)NC[C@@H](O)COc1cccc2c1CCCC2=O` [(+) -Levobunolol hydrochloride], the growth yield amounted to 100.2 ± 0.16% (40 h) and 98.9 ± 0.1% (72 h).

For the compound `CO[C@H]1/C=C/O[C@@]2(C)Oc3c(C)c(O)c4c(O)c(c(/C=N/N5CCN(C6CCCC6)CC5)c(O)c4c3C2=O)NC(=O)/C(C)=C\C=C\[C@H](C)[C@H](O)[C@@H](C)[C@@H](O)[C@@H](C)[C@H](OC(C)=O)[C@@H]1C` [Rifapentine], the growth yield reads like this: (40 h) 84.5%; (72 h) 94%.

In the case of `N=C(N)NC(=N)NCCc1ccccc1` [Phenformin hydrochloride], the growth yield was 96.9 ± 1.9% (40 h) and 91.5 ± 2.7% (72 h).

Take `NCCc1c[nH]cn1` [Histamine dihydrochloride]: the growth yield came to 98.3 ± 3.3% (40 h) and 98.5 ± 3% (72 h).

For `CCCOc1cc(N)ccc1C(=O)OCCN(CC)CC` [Propoxycaine hydrochloride], the growth yield (40 h) turned out to be 110 ± 3.8% and the growth yield (72 h) worked out at 106 ± 4%.

Consider `OC(Cn1cncn1)(Cn1cncn1)c1ccc(F)cc1F` [Fluconazole], for which the growth yield was 55.1 ± 1.8% (40 h) and 61.14 ± 0.52% (72 h).

Compound `CC[N+](C)(C)c1cccc(O)c1` [Edrophonium chloride] had a growth yield (40 h) of 107 ± 5.9% and a growth yield (72 h) of 112 ± 4.7%.

For the compound `Cc1cn[nH]c1` [Fomepizole], the growth yield runs as follows: (40 h) 101 ± 2.2%; (72 h) 101 ± 1.8%.

As to `CC[N+](C)(CC)CCOC(=O)C1c2ccccc2Oc2ccccc21` [Methantheline bromide], the growth yield is, setting by setting: (40 h) 110 ± 1.8%; (72 h) 108 ± 1.3%.

Regarding `CCCCN(CCCC)CCCOC(=O)c1ccc(N)cc1` [Butacaine], the growth yield (40 h) was found to be 95.5 ± 4.9% and the growth yield (72 h) turned out to be 98.5 ± 4.1%.

For `COC(=O)Nc1nc2cc(C(=O)c3cccs3)ccc2[nH]1` [Nocodazole], the growth yield is, setting by setting: (40 h) 91.3 ± 5.2%; (72 h) 92.9 ± 2.9%.

`Cc1ccc(C(=O)c2ccc(CC(=O)O)n2C)cc1` [Tolmetin sodium salt dihydrate]: the growth yield stood at 82.9 ± 2.5% (40 h) and 80.3 ± 1.1% (72 h).

Consider `CC(=O)OCC(=O)[C@@]1(O)CC[C@H]2[C@@H]3CCC4=CC(=O)CC[C@]4(C)[C@@]3(F)[C@@H](O)C[C@@]21C` [Fludrocortisone acetate], for which the growth yield came to 96.73 ± 0.79% (40 h) and 101.3 ± 0.63% (72 h).

On to `NS(=O)(=O)c1cc(C2(O)NC(=O)c3ccccc32)ccc1Cl` (centres undefined) [Chlorthalidone], for which the growth yield (40 h) worked out at 102 ± 3.6% and the growth yield (72 h) came to 105 ± 3.7%.

Consider `C=CC(N)CCC(=O)O` (centres undefined) [Vigabatrin hydrochloride], for which the growth yield is, setting by setting: (40 h) 101 ± 1.8%; (72 h) 100 ± 1.1%.

With `Cc1ncc(C[n+]2csc(CCO)c2C)c(N)n1` [Thiamine hydrochloride], the growth yield (40 h) was 98 ± 0.16% and the growth yield (72 h) is 95.75 ± 0.94%.

Take `CC(C)c1c(C(=O)Nc2ccccc2)c(-c2ccccc2)c(-c2ccc(F)cc2)n1CC[C@@H](O)C[C@@H](O)CC(=O)O` [Atorvastatin]: the growth yield by setting is: (40 h) 106%; (72 h) 85.1 ± 10%.

Compound `CC(=O)OCC(=O)[C@@]1(O)CC[C@H]2[C@@H]3CCC4=CC(=O)CC[C@]4(C)[C@H]3[C@@H](O)C[C@@]21C` [Cortisol acetate] came in with a growth yield (40 h) of 98.2 ± 4.8% and a growth yield (72 h) of 96.2 ± 2%.

In the case of `CCN[C@H]1CN(CCCOC)S(=O)(=O)c2sc(S(N)(=O)=O)cc21` [Brinzolamide], the growth yield is 96.1 ± 2.4% (40 h) and 98.5 ± 4.3% (72 h).

Turning to `CC(=O)OCC(=O)NCCCOc1cccc(CN2CCCCC2)c1` [Roxatidine Acetate hydrochloride], the growth yield stood at 100% (40 h) and 102% (72 h).

Take `CCn1cc(C(=O)O)c(=O)c2cc(F)c(N3CCNCC3)nc21` [Enoxacin]: the growth yield reads like this: (40 h) 95.6 ± 3.5%; (72 h) 97.3 ± 3.4%.

Take `CCCc1ncc(C[n+]2ccccc2C)c(N)n1` [Amprolium hydrochloride]: the growth yield was found to be 97.1 ± 4% (40 h) and 98.2 ± 2.7% (72 h).

As for `Oc1ccc(C2CNCCc3c2cc(O)c(O)c3Cl)cc1` (centres undefined) [Fenoldopam], the growth yield reads like this: (40 h) 100 ± 2.7%; (72 h) 97 ± 1.6%.

Turning to `CC(C(=O)O)c1cccc(Oc2ccccc2)c1` (centres undefined) [Fenoprofen calcium salt dihydrate], the growth yield by setting is: (40 h) 97.5 ± 10%; (72 h) 97.7 ± 13%.

For `CS(=O)(=O)c1ccc([C@@H](O)[C@@H](CF)NC(=O)C(Cl)Cl)cc1` [Florfenicol], the growth yield is, setting by setting: (40 h) 92.3 ± 4.3%; (72 h) 92.61 ± 0.52%.

Consider `CCN(CC)CCCC(C)Nc1ccnc2cc(Cl)ccc12` (centres undefined) [Chloroquine diphosphate], for which the growth yield by setting is: (40 h) 99.75 ± 0.64%; (72 h) 103 ± 0.21%.

As to `Nc1ccc(S(=O)(=O)NC(=O)c2ccccc2)cc1` [Sulfabenzamide], the growth yield by setting is: (40 h) 95.6 ± 2.2%; (72 h) 95.8 ± 1.1%.

For the compound `C=C(CC)C(=O)c1ccc(OCC(=O)O)c(Cl)c1Cl` [Ethacrynic acid], the growth yield runs as follows: (40 h) 84.98 ± 0.16%; (72 h) 85 ± 1.5%.

Consider `O=C1NCCN1c1ncc([N+](=O)[O-])s1` [Niridazole], for which the growth yield was 95% (40 h) and 93.8% (72 h).

In the case of `C1N2CN3CN1CN(C2)C3` [Methenamine], the growth yield (40 h) amounted to 102.61 ± 2.2e-14% and the growth yield (72 h) was determined as 100.2 ± 0.52%.
